Results: PubChem BioAssay (NCI)
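48-hour exposure; five concentrations; linearly interpolated endpoints. GI50 is the concentration that inhibits growth by half. Definition used: TGI = concentration required for complete inhibition of growth.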 The source made the active and inactive calls.

Tests used:
CCRF-CEM leukemia = experiment: NCI-60 cell line screen, 48 h
SR leukemia = experiment: NCI-60 cell line screen, 48 h

CCOC(=O)c1ccc(N/N=C/c2cn(-c3ccc(S(N)(=O)=O)cc3)nc2-c2ccc(S(C)(=O)=O)cc2)cc1
GI50 (CCRF-CEM leukemia): inactive
TGI (CCRF-CEM leukemia): > 100 µM
GI50 (SR leukemia): inactive
TGI (SR leukemia): > 100 µM
